The whole screen tested about 360,000 compounds, of which about 25,000 (6.9%) were called active. The shares of active, inactive and inconclusive entries below differ from those in the screen. The call rests on the fitted dose curve; in most records, active means well fitted inhibition curve with a large enough effect; inconclusive means small, poorly fitted or top-dose-only effect; inactive means flat fitted curve, though single readings scatter. Where the call is inconclusive, the potency comes from a doubtful curve fit. Some structures have more than one record in an assay (separate samples or runs), and their calls can disagree.
What follows are compounds tested against Luciferin 4-monooxygenase (Photinus pyralis) (UniProt P08659) (assay: qHTS profiling assay for firefly luciferase inhibitor/activator using purifed enzyme and Km concentrations of substrates (counterscreen for miR-21 project)). Conditions: purified FLuc, luminescence inhibition; series mostly up to 57.5 µM; activity change, negative = inhibition: at the top concentration.
UniProt P08659, sequence (P08659 whole entry, looked up): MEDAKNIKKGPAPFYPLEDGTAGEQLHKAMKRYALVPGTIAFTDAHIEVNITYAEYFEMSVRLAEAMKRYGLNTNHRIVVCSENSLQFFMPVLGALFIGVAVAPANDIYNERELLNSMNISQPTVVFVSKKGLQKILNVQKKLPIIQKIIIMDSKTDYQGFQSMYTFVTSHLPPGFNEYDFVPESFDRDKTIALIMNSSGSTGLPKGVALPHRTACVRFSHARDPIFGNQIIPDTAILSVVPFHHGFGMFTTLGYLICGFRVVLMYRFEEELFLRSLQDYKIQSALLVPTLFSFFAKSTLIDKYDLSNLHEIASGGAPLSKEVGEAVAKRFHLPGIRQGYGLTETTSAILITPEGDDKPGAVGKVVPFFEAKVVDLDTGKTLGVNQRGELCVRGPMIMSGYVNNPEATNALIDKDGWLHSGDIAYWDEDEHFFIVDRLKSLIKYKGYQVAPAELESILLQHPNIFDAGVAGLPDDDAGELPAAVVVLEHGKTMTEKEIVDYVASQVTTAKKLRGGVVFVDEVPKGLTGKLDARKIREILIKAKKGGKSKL
How it was run: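 Purified P. pyralis luciferase, 10 nM final, with Km-level 10 uM D-luciferin and 10 uM ATP in 50 mM Tris acetate pH 7.5, 10 mM Mg acetate, 0.01% Tween-20, 0.05% BSA; 6-point qHTS titration about 60 µM downward; luminescence read.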
With `Cc1cc(=O)[nH]c(SCC(=O)Nc2ccnc3ccccc23)n1` the Potency was inconclusive: 37.9 µM [inhibitor, partial curve, poor fit]. For `CCOC(=O)C1(Cc2ccccc2C)CCCN(C(=O)c2ccccn2)C1` (configuration not stated), the Potency was inconclusive: 23.9 µM [inhibitor, single point]. In the case of `O=C(Nc1nc2ccccc2s1)c1ccc(F)cc1`, the Potency is reported as active: 1.07 µM. In the case of `O=C(CN1CCN(c2ccccn2)CC1)Nc1nc2ccccc2s1`, the Potency is reported as inconclusive: 37.9 µM [inhibitor, partial curve, poor fit]. With `COc1ccc(-c2cc(-c3nnc(COC(=O)C4CC4C)o3)c3ccccc3n2)cc1OC` (configuration not stated) the Potency was inconclusive: 30.1 µM [inhibitor, partial curve, poor fit]. For `O=C(Cc1ccccc1)Nc1ccc(SC(F)F)cc1`, the Potency was active: 16.9 µM. With `O=C(CSc1nnc(-c2ccc(F)cc2)o1)N1CCCCC1` the Potency was inconclusive: 23.9 µM [inhibitor, single point]. `CCOc1ccc(OCCSc2nc3ccccc3n2CC(=O)O)cc1` was tested, and the Potency was inconclusive: 26.9 µM [inhibitor, partial curve, poor fit]. `CCOCCc1nn2c(=O)cc(COC(=O)c3ccccc3NC(=O)C3CCCCC3)nc2s1` was tested, and the “activity change, negative = inhibition” value was inactive: 0.866%. For `COc1ccc(OC)c(-n2c(=S)[nH]c3cc(C(=O)N(C)Cc4ccccc4)ccc3c2=O)c1`, the Potency was inconclusive: 16.9 µM [inhibitor, partial curve, poor fit]. In the case of `N#Cc1nc(-c2cccc3ccccc23)oc1NCCN1CCOCC1`, the Potency is reported as inconclusive: 21.3 µM [inhibitor, single point]. With `CCOc1cc(C(=S)N2CCCC2)ccc1OCc1ccccc1` the “activity change, negative = inhibition” value was inactive: 2.73%. `Oc1ccc(Cl)cc1C1=NNC(c2ccc(Cl)cc2)C1` (configuration not stated) was tested, and the Potency was inconclusive: 33.8 µM [inhibitor, single point]. `Cn1c(SCc2c(Cl)cccc2Cl)nnc1-c1cccs1` was tested, and the Potency was inconclusive: 26.9 µM [inhibitor, partial curve, poor fit]. `COc1cc(C(N)=O)ccc1OCc1ccccc1` was tested, and the Potency was inconclusive: 30.1 µM [inhibitor, partial curve, poor fit]. `Cc1cccc(NC(=O)Cn2c(=O)n(CCCS(=O)(=O)C3CCCCC3)c(=O)c3ccccc32)c1` was tested, and the “activity change, negative = inhibition” value was inactive: -5.92%. In the case of `CCOCCCNC(=O)c1[nH]c2cc(C)ccc2c1Sc1ccc(Cl)cc1`, the Potency is reported as inconclusive: 30.1 µM [inhibitor, partial curve, poor fit]. In the case of `Cc1nnc(SCc2ccc3c(c2)OCO3)s1`, the Potency is reported as inconclusive: 26.9 µM [inhibitor, single point]. `Cc1cccc(NC(=O)c2ccc(-n3cccn3)c([N+](=O)[O-])c2)c1` was tested, and the Potency was inconclusive: 23.9 µM [inhibitor, single point]. In the case of `O=C(Nc1cccc(Cl)c1)O/N=C\c1ccncc1`, the Potency is reported as inconclusive: 37.9 µM [inhibitor, single point]. With `CN(C(=O)CN1C(=O)/C(=C/c2ccccc2Cl)SC1=S)C1CCS(=O)(=O)C1` (configuration not stated) the Potency was inconclusive: 23.9 µM [inhibitor, partial curve]. `CC1CCCCN1S(=O)(=O)c1ccc(C(=O)Nc2sc3c(c2C(N)=O)CC(C)(C)NC3(C)C)cc1` (configuration not stated) was tested, and the “activity change, negative = inhibition” value was inactive: 4.58%. In the case of `Cc1ccccc1Nc1c(-c2ccco2)nc2c(C)cccn12`, the Potency is reported as active: 13.5 µM. In the case of `Cc1cc(Nc2ccc(Cl)cc2)nc(-c2ccccc2O)n1`, the Potency is reported as inconclusive: 37.9 µM [inhibitor, single point]. In the case of `CC(=O)CCC(=O)N1CCCC(CNC(=O)c2ccc(-c3ccccc3)cc2)C1` (configuration not stated), the Potency is reported as active: 10.7 µM. `Cc1cc(C(=O)OCC(=O)Nc2ccccc2F)c(C)o1` was tested, and the Potency was inconclusive: 19 µM [inhibitor, partial curve]. For `Cc1ccc(CS(=O)(=O)c2ncc(Cl)c(C(=O)Nc3nc4ccc(C)cc4s3)n2)cc1`, the Potency was inconclusive: 3.38 µM [inhibitor, partial curve, poor fit]. `O=C(NC(=S)Nc1ccc2[nH]ncc2c1)c1ccccc1` was tested, and the Potency was inconclusive: 19 µM [inhibitor, partial curve]. In the case of `CCOC(=O)/C(C#N)=C\c1ccc(O)c(OC)c1`, the “activity change, negative = inhibition” value is reported as inactive: -15.7%. With `Cc1ccc(/C=C/C(=O)CCC(=O)O)cc1` the Potency was active: 6.75 µM. `O=C(CC(=O)c1cc(Cl)ccc1O)c1ccccc1` was tested, and the Potency was inconclusive: 26.9 µM [inhibitor, single point]. With `Cn1ccc(NC(=O)c2ccc(Cl)cc2)n1` the Potency was inconclusive: 23.9 µM [inhibitor, partial curve]. With `COc1ccccc1NS(=O)(=O)c1cccc(NC(=O)c2cc3ccccc3oc2=O)c1` the Potency was active: 10.7 µM. For `c1ccc(-c2nc(NCC3CCCO3)c3oc4ccccc4c3n2)cc1` (configuration not stated), the Potency was active: 15.1 µM. For `Fc1ccc(NC(=S)NNc2ncc(C(F)(F)F)cc2Cl)c(F)c1`, the “activity change, negative = inhibition” value was inactive: 0.329%. For `O=C(COC(=O)c1cc[n+]([O-])cc1)Nc1cc([N+](=O)[O-])ccc1Cl`, the “activity change, negative = inhibition” value was inactive: -1.79%. `CC(C)(C)NC(=S)N1CCC(C(=O)c2ccc(F)cc2)CC1` was tested, and the “activity change, negative = inhibition” value was inactive: -1.03%. For `CCOC(=O)C1(Cc2cccc(OC)c2)CCCN(C(=O)CCSC)C1` (configuration not stated), the Potency was inconclusive: 26.9 µM [inhibitor, partial curve]. `COc1ccccc1NCC(O)COc1ccc(C(C)(C)C)cc1` (configuration not stated) was tested, and the Potency was inconclusive: 37.9 µM [inhibitor, partial curve, poor fit]. With `CCOC(=O)Nc1ccc2c(COC(=O)c3ccccc3O)cc(=O)oc2c1` the Potency was inconclusive: 23.9 µM [inhibitor, partial curve, poor fit]. For `O=C(NCCc1c[nH]c2ccccc12)C(=O)NCC(c1cccnc1)N1CCN(c2ccccc2)CC1` (configuration not stated), the “activity change, negative = inhibition” value was inactive: -2.21%. For `CCOC(=O)C(C)c1ccc2cc(OC)ccc2c1` (configuration not stated), the Potency was inconclusive: 19 µM [inhibitor, single point]. For `COc1cccc(N2CCN(C(=O)CCCCCn3c(=S)[nH]c4cc5c(cc4c3=O)OCO5)CC2)c1`, the “activity change, negative = inhibition” value was inactive: -1.4%. In the case of `C/C(=N\NC(=O)c1ccc2c(c1)OCO2)c1ccco1`, the Potency is reported as active: 9.53 µM. `Oc1c(C(c2ccc(Cl)cc2)N2CCC3(CC2)OCCO3)sc2nc(-c3ccco3)nn12` (configuration not stated) was tested, and the Potency was inconclusive: 37.9 µM [inhibitor, partial curve, poor fit]. In the case of `COc1cccc(CN(C)Cc2nc3cc(C(F)(F)F)ccc3c(=O)[nH]2)c1`, the “activity change, negative = inhibition” value is reported as inactive: 2.52%. `O=c1[nH][nH]c2cc(=O)n(-c3ccc(Cl)cc3)nc12` was tested, and the Potency was inconclusive: 21.3 µM [inhibitor, single point]. With `Cc1c(CC(=O)NCCCC(=O)O)c(=O)oc2cc3oc4c(c3cc12)CCCC4` the Potency was active: 21.3 µM. `N#C/C(C(N)=O)=c1/ccc2c(c1)N1C3=C(CCCC3)CC3CCCCC31N=2` (configuration not stated) was tested, and the Potency was active: 8.49 µM. `COC(=O)c1sc(NC(=O)c2ccco2)c(C#N)c1C` was tested, and the Potency was inconclusive: 21.3 µM [inhibitor, partial curve]. In the case of `N#CC(C#N)=C1C=CC=CN1/C(=C\c1ccccc1Cl)C(=O)c1ccccc1`, the Potency is reported as inconclusive: 26.9 µM [inhibitor, partial curve, poor fit]. For `CS(=O)(=O)N(CC(=O)Nc1cccc(Br)c1)Cc1ccccc1`, the “activity change, negative = inhibition” value was inactive: 1.12%. `Cc1ccc(C(=O)Oc2ccc(/C=C3\C(=N)N4N=C(N5CCOCC5)SC4=NC3=O)cc2)cc1` was tested, and the Potency was inconclusive: 21.3 µM [inhibitor, single point]. In the case of `COc1ccc(OC)c(C2=NOC(C(=O)NCC3CCCO3)C2)c1` (configuration not stated), the Potency is reported as inconclusive: 26.9 µM [inhibitor, partial curve, poor fit]. With `Cc1c(Cl)cccc1Nc1nc(NCCO)c2ccccc2n1` the Potency was active: 15.1 µM. For `COc1ccc2nc(-c3ccc(Cl)cc3)cc(C(=O)O)c2c1`, the Potency was active: 8.49 µM. For `COc1cc(OC)c(C(=O)Nc2cccnc2)cc1OC`, the Potency was inconclusive: 16.9 µM [inhibitor, partial curve, poor fit]. `O=C(Nc1ccc(Nc2ccccc2)cc1)c1cccc(F)c1` was tested, and the Potency was active: 13.5 µM. `COc1cccc(N2C(=NC(=O)C3CCCCC3)SC3CS(=O)(=O)CC32)c1` (configuration not stated) was tested, and the “activity change, negative = inhibition” value was inactive: -0.519%. In the case of `Cc1ccc(N2N=C(c3ccc(F)cc3)CC2c2ccco2)cc1` (configuration not stated), the Potency is reported as inconclusive: 26.9 µM [inhibitor, single point]. With `COc1ccc(NC2CCCN(C(=O)CCC(=O)c3ccc(F)cc3)C2)cc1` (configuration not stated) the Potency was inconclusive: 15.1 µM [inhibitor, partial curve, poor fit]. `CCOC(=O)CC(=O)CSc1nnc2sc3ccccc3n12` was tested, and the Potency was inconclusive: 15.1 µM [inhibitor, partial curve]. For `CCCCN1C(=O)C(O)(c2c[nH]c3ccccc23)c2cc(Br)ccc21` (configuration not stated), the “activity change, negative = inhibition” value was inactive: -9.69%. With `CCC(=O)Nc1ccc(C(=O)COC(=O)Cc2ccsc2)cc1` the Potency was active: 10.7 µM. `Cc1ccc(/C=N/Nc2nc(C(C)(C)C)cs2)o1` was tested, and the Potency was active: 13.5 µM. `COc1ccc(-n2cc(C(=O)N(C)c3cc(C)ccc3OC)c3ccccc3c2=O)cc1` was tested, and the Potency was inconclusive: 12 µM [inhibitor, partial curve, poor fit]. In the case of `Cc1ccc(CNC(=O)Nc2ccccc2)n1C`, the Potency is reported as active: 19 µM. With `O=C(Nc1ccccn1)c1cccs1` the Potency was inconclusive: 15.1 µM [inhibitor, partial curve]. In the case of `CCOc1ccc(NS(=O)(=O)c2ccc3[nH]cc(C(=O)NCCOC)c(=O)c3c2)cc1`, the Potency is reported as active: 10.7 µM. With `CN(C)CCNC(=O)CCCn1c(=O)c2cccn2c2ccccc21` the Potency was active: 15.1 µM. `O=C(Nc1ncccc1Cl)c1ccccc1F` was tested, and the Potency was inconclusive: 21.3 µM [inhibitor, partial curve, poor fit]. In the case of `CCOC(=O)C1CCN(C(=O)CCc2c(C)nc3cc(-c4ccccc4)nn3c2C)CC1`, the Potency is reported as inconclusive: 30.1 µM [inhibitor, single point].
Further: nearly all actives have a fitted effect of over 55% in size.
Potency means the concentration at half of the fitted maximal effect; tags describe the fitted curve by direction and shape.
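Wherever activity change, negative = inhibition is given: plate controls were vehicle for no effect and reference inhibitor for full effect.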
